Measurements: patent US20120065123A1, “Synthetic Antibodies” (priority 2009, published 2012)
For part of these data: Part of at least one peptide drawing is inferred or uncertain, most often the ends. Some of these results come from one statement about several compounds together. Where no end group is shown, it is not given here.

What was measured:
Type in all cases: binding
Transferrin [1] = molecular target: T1, Transferrin (Homo sapiens, UniProt P02787); assay: Affinity characterization of TRF26 lead and selected mutants
T1 sequence (P02787 20-698): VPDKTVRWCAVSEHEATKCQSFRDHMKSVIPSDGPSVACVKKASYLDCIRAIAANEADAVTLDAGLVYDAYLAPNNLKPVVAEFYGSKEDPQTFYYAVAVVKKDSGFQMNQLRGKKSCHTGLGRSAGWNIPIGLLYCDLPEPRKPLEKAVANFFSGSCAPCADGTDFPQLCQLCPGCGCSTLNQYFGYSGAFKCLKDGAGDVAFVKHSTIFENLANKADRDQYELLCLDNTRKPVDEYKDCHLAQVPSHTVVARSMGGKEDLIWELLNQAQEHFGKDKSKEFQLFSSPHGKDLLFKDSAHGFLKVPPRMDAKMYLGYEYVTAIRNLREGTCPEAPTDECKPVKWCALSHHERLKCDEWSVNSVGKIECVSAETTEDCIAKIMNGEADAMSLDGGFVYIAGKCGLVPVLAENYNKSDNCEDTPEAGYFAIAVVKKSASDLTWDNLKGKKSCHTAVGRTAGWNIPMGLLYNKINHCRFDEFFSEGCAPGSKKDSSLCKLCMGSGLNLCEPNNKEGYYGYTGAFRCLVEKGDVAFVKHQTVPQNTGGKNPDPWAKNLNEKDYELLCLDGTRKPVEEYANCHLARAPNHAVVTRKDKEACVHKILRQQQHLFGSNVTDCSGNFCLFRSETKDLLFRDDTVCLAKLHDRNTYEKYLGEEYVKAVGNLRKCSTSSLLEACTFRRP
Procedure: Two TRF26 point-mutants (P6Y, H12F) were selected for further affinity characterization. The P6Y and H12F point-mutants have dissociation constants of 8.6±1.6 μM and 9.8±1.6 μM respectively. […] A TRF26 double mutant sequence containing the P6Y+H12F mutations was synthesized and characterized.

Transferrin [2] = molecular target: T1, Transferrin; assay: SPR solution phase KD of candidate affinity elements, transferrin immobilized (Biacore T100); details: summary of Table 3; read-out: solution phase affinities for transferrin, KD
Procedure: Transferrin 25 μg/ml in immobilization buffer selected for correct pH was then applied 302 at a flow rate of 5 to 10 μl/min for a contact time of about 5 to 10 minutes, allowing the amine functionality on the transferrin 308 to displace the activated NHS ester and bond to the surface via an amide bond. Finally, ethylene diamine (1M ethylene diamine-HCl at pH 8.5) was applied 304 at a flow rate of 5 to 10 μl/min for a contact time of about 6 to 7 minutes to deactivate any remaining reactive groups on the dextran chip surface. Flow rates and contact times are adjusted as necessary to provide the surface concentration of target desired for the intended application, and may vary by target. In general, for evaluating whether binding occurs, it is preferable to immobilize a relatively large quantity of target, and higher flow rates and/or longer contact times may be used. For determining kinetics, it is preferable to limit the amount of target immobilized so as to minimize rebinding and avidity effects, and lower flow rates and/or contact times may be used.
Candidate affinity elements for the transferrin synbody TRF19, TRF21, TRF23, TRF24, TRF25, and TRF26 were individually evaluated for solution phase KD with respect to transferrin by SPR analysis. […]

TNF-α = TNF-α (Homo sapiens, UniProt P01375); assay: SPR of TNF1 lead and mutant peptides on captured TNF-α (Biacore A100); details: for fold enhancement in SPR binding response relative to TNF1: 50 μM peptide concentration; for Binding ΔG (observed): calculated from dissociation constants
TNF-α, sequence (P01375 77-233 limits assumed, species assumed): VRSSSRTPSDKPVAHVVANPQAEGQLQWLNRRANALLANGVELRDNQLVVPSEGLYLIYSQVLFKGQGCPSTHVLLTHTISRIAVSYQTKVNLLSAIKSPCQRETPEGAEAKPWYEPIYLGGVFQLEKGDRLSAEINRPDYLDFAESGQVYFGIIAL
Source text: After lead identification, the next step in the AMPLI algorithm is characterization of point mutations in the lead heteropolymer. Using short peptides makes it chemically feasible to synthesize a significant fraction of the point-mutant space, which can then be screened for enhanced point mutations. For example, all possible point mutations in the 17 randomized positions using all 20 natural amino acids could be synthesized and screened within a single 384-well plate (323 total point-mutants). However, libraries containing all 20 natural amino acids are not required for affinity optimization of protein-protein interactions. […] Tyrosine (Y), alanine (A), aspartic acid (D) and serine (S) were selected because of their effectiveness in producing high affinity interactions when substituted into the complementary-determining regions (CDRs) of synthetic antibodies (Felouse, Proceedings of the National Academy of Sciences 101(34):12467, 2004), lysine (K) was selected to balance the charge in the substitution set, asparagine (N), valine (V) and tryptophan (W) were selected to span the hydropathicity range (Kyte J & Doolittle R F, Journal of Molecular Biology 157(1):105-132, 1982). […] This concentration was used to increase the high-end dynamic range for quantifying enhancing point mutations at the expense of low-end dynamic range for quantifying detrimental point mutations.
Point-mutant libraries were prepared in 96-well stock plates From the stock plate, peptides were diluted to 50 μM concentration in Biacore HBS-EP buffer (GE Healthcare, Piscataway, N.J.) containing 1 mg/ml carboxymethyl-dextran (Sigma-Aldrich, St. Louis, Mo.) to reduce non-specific binding to the CM-5 SPR chip surface. TNF-α was captured on a CM-5 chip surface at different capture levels on spots 1, 2, 4, and 5 across all four flow cells corresponding to a 40-200 RU range of predicted Rmax binding responses. Spot 3 contained only immobilized neutravidin and served as a reference spot.
Using the prepared 96-well plates and Biacore A100 SPR instrument, four peptides were flowed separately, in parallel, through the four flow cells over all 4 TNF-α spots and the neutravidin reference spot, with a 60 second association phase and 300 second dissociation phase. SPR sensorgrams were recorded for each peptide response with all 4 TNF-α spots and the neutravidin reference spot across the four flow cells on the SPR chip. Surface regeneration was performed after every 12 injections in each flow cell with Biacore Glycine 2.5 regeneration solution (GE Healthcare, Piscataway, N.J.).
Purified point-mutant affinities were measured on the Biacore A100 using SPR equilibrium binding response across a series of peptide concentrations on an SPR chip with TNF-α captured as described above.
These sequences were synthesized and purified using standard solid-phase FMOC synthesis and HPLC purification.

With AHKVVPQRQIRFAYNRYGSC [Synbody H12F] as the sequence, how does the “Binding ΔG (observed)” value (Transferrin [1]) read?
Its value is -6.85 ± 0.10 kcal/mol.

How did the Kd (Transferrin [2]) turn out when AHKVVPQRQIRHAYNRYGSC [TRF26] was run?
Its Kd is 50 to 100 µM.

What does the source list for AHKVVYQRQIRFAYNRYGSC [P6Y + H12F]?
Binding ΔG (observed) (Transferrin [1]): -8.68 ± 0.15 kcal/mol; Kd Fold-Change Relative to Lead (Transferrin [1]): 190 ± 57

AHKVVYQRQIRHAYNRYGSC [Synbody P6Y] was tested. Which “Binding ΔG (observed)” value (Transferrin [1]) did it give?
Its value is -6.93 ± 0.11 kcal/mol.

Which “fold enhancement in SPR binding response relative to TNF1” value (TNF-α) does the source give for FERDPLKMPWSFLQSRQGSC [Synbody M7K] here?
Its value is at least 15 fold.

And the “Binding ΔG (observed)” value (TNF-α)?
The value was -5.93 ± -.20 kcal/mol.

For FERDPLMMPWKFLQSRQGSC [Synbody S11K], which “fold enhancement in SPR binding response relative to TNF1” value (TNF-α) is on record?
Its value is at least 15 fold.

FERDYLKMPWSFLQSRQGSC [P5Y + M7K] was tested. Which “Kd Fold-Change Relative to Lead” value (TNF-α) did it give?
The value was 5.8 ± 0.8.

What about the “observed binding energy difference to the D4S+P5Y+M7K+S11K quadruple mutant” value (TNF-α) of the same sequence?
Its value is -1.73 ± 0.12 kcal/mol.

And the “Binding ΔG (observed)” value (TNF-α)?
Its value is -6.24 ± 0.04 kcal/mol.

Which results are given for FERDYLMMPWKFLQSRQGSC [P5Y + S11K]?
Kd Fold-Change Relative to Lead (TNF-α): 6.6 ± 0.9; difference in observed binding energy to the D4S+P5Y+S11K mutant (TNF-α): -0.72 ± 0.06 kcal/mol; observed binding energy difference to the D4S+P5Y+M7K+S11K quadruple mutant (TNF-α): -1.66 ± 0.12 kcal/mol; Binding ΔG (observed) (TNF-α): -6.63 ± 0.04 kcal/mol

With FERDYLMMPWSFLQSRQGSC [Synbody P5Y] as the sequence, how does the “fold enhancement in SPR binding response relative to TNF1” value (TNF-α) read?
Its value is at least 15 fold.

What about the “Binding ΔG (observed)” value (TNF-α) of the same sequence?
Its value is -5.79 ± 0.04 kcal/mol.

What does the source list for FERSYLKMPWSFLQSRQGSC [D4S + P5Y + M7K]?
Kd Fold-Change Relative to Lead (TNF-α): 11 ± 1.6; Binding ΔG (observed) (TNF-α): -6.63 ± 0.04 kcal/mol

Which “fold enhancement in SPR binding response relative to TNF1” value (TNF-α) does the source give for FERYPLMMPWSFLQSRQGSC [Synbody D4Y] here?
Its value is at least 15 fold.

How did the Kd (Transferrin [2]) turn out when FRGWAHIFFGPHVIYRGGSC [TRF23] was run?
Its Kd is 50 to 100 µM.
